# From PubChem BioAssay (Tox21)
# Several values for one entry are separate records, joined by “and”; a condition that tells them apart may be missing. Identical values can stand only once. Activity calls are given as the source filed them. Unless noted, the call rests on the fitted dose curve; in most records, active means well fitted curve in the direction sought with a large enough effect in the repeat runs; inconclusive means weak or mixed curves; inactive means no such curve, though single readings can be large; an effect the other way counts as inactive or inconclusive.
# Key:
# [1] = molecular target: Progesterone receptor (Homo sapiens) (UniProt P06401); experiment: qHTS assay to identify small molecule agonists of the progesterone receptor (PR) signaling pathway (AID 1346784; calls by dose curve; further: nearly all actives have a fitted effect of over 30% in size; further: potency means the concentration at half of the fitted maximal effect); conditions: PR-UAS-bla HEK293T, beta-lactamase FRET ratio, 16 h; activation: at 92.4 µM (top of the series) unless noted
# Outline: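 Using charcoal-stripped serum (2%) to limit endogenous steroids, PR-UAS-bla HEK 293T cells received compounds for 16 hr at 37C after 6 hr plating; beta-lactamase FRET fluorescence was recorded following 2 hr substrate loading at room temperature.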
# [2] = molecular target: Estrogen receptor (Homo sapiens) (UniProt P03372); experiment: qHTS assay to identify small molecule agonists of the estrogen receptor alpha (ER-alpha) signaling pathway (AID 743075; calls by dose curve;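 further: HEK293 GripTite cells with ER-alpha and UAS-driven beta-lactamase reporter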; further: potency means the concentration at half of the fitted maximal effect); conditions: HEK293 ER-alpha-UAS-bla, beta-lactamase FRET ratio, 18 h; activation: at 70.1 µM (top of the series) unless noted
# [3] = molecular target: Bile acid receptor (Homo sapiens) (UniProt Q96RI1); experiment: qHTS assay to identify small molecule agonists of the farnesoid-X-receptor (FXR) signaling pathway (AID 743220; active means well fitted activation curve with a large enough effect in the signal ratio in the repeat runs, not every such curve was filed as active; inconclusive means weak or mixed curves, or effect the other way; the % refers to the signal ratio; further: potency means the concentration at half of the fitted maximal effect; on activation: on the % scale 0 is the no-effect control and ±100 the full control effect); conditions: HEK293T FXR-UAS-bla, beta-lactamase FRET ratio, 16 h; activation: at 62.6 µM (top of the series)
# Outline: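 Beta-lactamase reporter under UAS control in GeneBLAzer FXR HEK 293T cells (5000/well) measured with LiveBLAzer FRET substrate after 2 h at room temperature. Compound exposure lasted 16 h at 37C.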
# [4] = qHTS RealTime-Glo MT Cell Viability Assay in HepG2 cells - 32 hour (AID 1224877); further: nearly all actives have a fitted effect of over 55% in size; further: potency means the concentration at half of the fitted maximal effect
# Outline: (§1)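 qHTS, HepG2, 600 cells/well, RealTime-Glo (NanoLuc + prosubstrate) added with cells; 5 h preincubation; DMSO compound addition; 37 C; luminescence at 0/8/16/24/32/40 h.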
# [5] = qHTS assay to identify small molecule agonists of the hypoxia (HIF-1) signaling pathway (AID 1224846; active means well fitted activation curve with a large enough effect in the signal ratio in the repeat runs, not every such curve was filed as active; inconclusive means weak or mixed curves; the % refers to the signal ratio; further: potency means the concentration at half of the fitted maximal effect; on activation: on the % scale 0 is the no-effect control and ±100 the full control effect); conditions: HRE-bla ME-180 cells, beta-lactamase ratio, 17 h; activation: at 76.8 µM (top of the series) unless noted
# Outline: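 HRE-bla ME-180 beta-lactamase reporter cells in medium with 0.5% dialyzed FBS, pre-incubated 5 h then exposed to compounds 17 h at 37C, 5% CO2; reporter induction read with CCF4-AM FRET substrate.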
# [6] = molecular target: Bile acid receptor (Homo sapiens) (UniProt Q96RI1); experiment: qHTS assay to identify small molecule antagonists of the farnesoid-X-receptor (FXR) signaling pathway (AID 743217; active means well fitted inhibition curve with a large enough effect in the signal ratio in the repeat runs, not every such curve was filed as active; inconclusive means weak or mixed curves, or effect the other way; inactive means no such curve, though single readings can be large or run the other way; the % refers to the signal ratio; further: potency means the concentration at half of the fitted maximal effect; on activity change, negative = inhibition: on the % scale 0 is the no-effect control and ±100 the full control effect); conditions: HEK293T FXR-UAS-bla, beta-lactamase ratio, CDCA-stimulated, 16 h; activity change, negative = inhibition: at 62.6 µM (top of the series) unless noted
# Outline: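 FXR-UAS-bla HEK 293T cells (beta-lactamase reporter) given compound plus chenodeoxycholic acid (50 uM final), 16 h at 37C. LiveBLAzer B/G FRET substrate added for 2 h at room temperature; fluorescence read.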
# [7] = qHTS RealTime-Glo MT Cell Viability Assay in HepG2 cells - 8 hour (AID 1224873); further: nearly all actives have a fitted effect of over 55% in size; further: potency means the concentration at half of the fitted maximal effect
# Outline: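 HepG2 cells mixed with RealTime-Glo MT reagents (NanoLuc plus cell-permeant prosubstrate) were seeded at 600 cells/well, incubated 5 h at 37 C/5% CO2, then pinned with compounds in DMSO; nonlytic luminescence tracked viability during 40 h treatment.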
# [8] = A CellTox Green Cytotoxicity Assay to monitor cytotoxicity in HEK293 cells - 24 hour (AID 1224875); further: potency means the concentration at half of the fitted maximal effect; nearly all actives have a fitted effect of over 45% in size
# Outline: (§2)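 HEK293 cells, 600/well, were preincubated 5 hours and then exposed to compounds at 37 C for up to 40 hours. A cell-impermeant cyanine dye staining dead-cell DNA was read by fluorescence at 0, 8, 16, 24, 32 and 40 h time points.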
# [9] = qHTS RealTime-Glo MT Cell Viability Assay in HEK293 cells - 0 hour (AID 1224880); further: potency means the concentration at half of the fitted maximal effect; nearly all actives have a fitted effect of over 45% in size
# Outline: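 600 cells/well were plated with the nonlytic NanoLuc/prosubstrate reagent, pre-incubated 5 h, then given 23 nL of compound in DMSO. Incubation at 37 C for 40 h, with luminescence from viable-cell-reduced substrate read repeatedly from 0 h.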
# [10] = A CellTox Green Cytotoxicity Assay to monitor cytotoxicity in HEK293 cells - 16 hour (AID 1224888); further: nearly all actives have a fitted effect of over 35% in size; further: potency means the concentration at half of the fitted maximal effect
# Outline: as §2
# [11] = qHTS assay to identify small molecule antagonists of the androgen receptor (AR) signaling pathway using the MDA cell line - cell viability counter screen (AID 743041; further: potency means the concentration at half of the fitted maximal effect; nearly all actives have a fitted effect of over 45% in size); conditions: MDA-kb2 viability, CellTiter-Fluor, 16 h, cells co-treated with R1881 androgen agonist; viability change, negative = cytotoxic: at 70.3 µM (top of the series)
# Outline: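 Viability counter screen run alongside the AR antagonist reporter: cells seeded 5 h before compound, R1881 added, 16 h incubation at 37C without CO2, fluorescent CellTiter-Fluor signal quantified.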
# Aromatase (Homo sapiens) = Aromatase (Homo sapiens) (UniProt P11511); experiment: qHTS assay to identify aromatase inhibitors (AID 743083); further: nearly all actives have a fitted effect of over 55% in size; further: potency means the concentration at half of the fitted maximal effect
# [12] = qHTS RealTime-Glo MT Cell Viability Assay in HepG2 cells - 0 hour (AID 1224889); further: nearly all actives have a fitted effect of over 50% in size; further: potency means the concentration at half of the fitted maximal effect
# Outline: as §1
# [13] = qHTS assay to identify small molecule antagonists of the estrogen receptor alpha (ER-alpha) signaling pathway using the BG1 cell line - cell viability counter screen (AID 743081); conditions: BG1Luc4E2 viability, CellTiter-Fluor, 22 h; activity change, negative = cytotoxicity: at 70.3 µM (top of the series);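 further: compound given together with 17beta-estradiol as the ER stimulus; nearly all actives have a fitted effect of over 45% in size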; further: potency means the concentration at half of the fitted maximal effect
# [14] = qHTS assay to identify small molecule that activate the aryl hydrocarbon receptor (AhR) signaling pathway - cell viability counter screen (AID 743086)
# Outline: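 HepG2-AhR-luc (HG2L7.5c1) cells, 4000/well, were preincubated 5 h at 37C, exposed to compound in qHTS format for 24 hr at 37C, then given CellTiter-Fluor for 30 min; viability was read as fluorescence in the reporter wells.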
# [15] = qHTS assay to identify small molecule antagonists of the TGF-beta/Smad signaling pathway (AID 1346924; active means well fitted inhibition curve with a large enough effect in the signal ratio in the repeat runs, not every such curve was filed as active; inconclusive means weak or mixed curves; the % refers to the signal ratio); conditions: SBE-bla HEK293T, TGF-beta/Smad reporter, beta-lactamase ratio; activity, negative = inhibition: at 76.8 µM (top of the series) unless noted
# Outline: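 SBE-bla HEK 293T cells were plated overnight, then received compound in DMSO plus TGF-beta1 (added as a 0.25 ng/mL solution) and were incubated 5 h at 37 C. Beta-lactamase reporter activity was read after 2 h at room temperature with LiveBLAzer B/G FRET substrate (ex 405, em 460/530 nm).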
# [16] = qHTS assay to identify small molecule antagonists of the retinoid acid receptor (RAR) signaling pathway - cell viability counter screen (AID 1159551); further: nearly all actives have a fitted effect of over 35% in size; further: potency means the concentration at half of the fitted maximal effect
# Outline: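 C3RL4 RARE-luciferase cells, 1,000/well, incubated overnight, then dosed with compound plus 1 uM retinol (final). After 6 hr at 37 C, viability read by CellTiter-Glo ATP luminescence following 30 min at room temperature.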
# [17] = molecular target: Estrogen receptor (Homo sapiens) (UniProt P03372); experiment: qHTS assay to identify small molecule antagonists of the estrogen receptor alpha (ER-alpha) signaling pathway using the BG1 cell line in the presence of 0.1 nM 17-beta-estradiol (AID 1259244); further: on the % scale 0 is the no-effect control and ±100 the full control effect; nearly all actives have a fitted effect of over 50% in size
# Outline: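 VM7Luc4E2 cells (endogenous full-length ER-alpha, 4×ERE-luciferase), kept 5 days in phenol red-free, charcoal-stripped FBS medium; 4,000 cells/well. Compounds added with 0.1 nM (final) 17beta-estradiol, 22 hr at 37C; luminescence read with ONE-Glo after 30 min.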
# [18] = qHTS assay for small molecule activators of the heat shock response signaling pathway (AID 743210; active means well fitted activation curve with a large enough effect in the signal ratio in the repeat runs, with a control signal flat, not every such curve was filed as active; inconclusive means weak or mixed curves; the % refers to the signal ratio;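 further: HeLa cells with beta-lactamase reporter driven by heat shock elements; on the % scale 0 is the no-effect control and ±100 the full control effect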); conditions: HeLa HSE-bla reporter, beta-lactamase ratio, 5 h; activation: at 62.6 µM (top of the series) unless noted
# Outline: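 Reporter gene assay: HeLa cells stably bearing an HSE-bla construct, compound treatment 5 h at 37 C, LiveBLAzer substrate 2.5 h at RT, fluorescence intensity.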
# Tags describe the fitted curve by direction and shape or compound fluorescence and quenching.
# Sequence of UniProt P11511 (P11511 whole entry, looked up): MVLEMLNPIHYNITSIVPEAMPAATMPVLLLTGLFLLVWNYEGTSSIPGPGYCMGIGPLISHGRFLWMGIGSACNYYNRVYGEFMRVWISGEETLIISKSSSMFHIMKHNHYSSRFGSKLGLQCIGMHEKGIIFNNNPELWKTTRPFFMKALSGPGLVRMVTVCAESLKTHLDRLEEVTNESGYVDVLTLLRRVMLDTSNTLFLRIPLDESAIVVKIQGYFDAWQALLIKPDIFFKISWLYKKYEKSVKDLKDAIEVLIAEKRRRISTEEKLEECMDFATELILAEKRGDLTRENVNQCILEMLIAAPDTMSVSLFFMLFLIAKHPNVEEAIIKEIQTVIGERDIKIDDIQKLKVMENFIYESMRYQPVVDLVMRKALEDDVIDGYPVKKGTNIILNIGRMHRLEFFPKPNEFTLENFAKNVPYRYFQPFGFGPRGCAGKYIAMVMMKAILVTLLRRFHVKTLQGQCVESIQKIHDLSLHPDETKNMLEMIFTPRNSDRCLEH
# Sequence of UniProt Q96RI1 (Q96RI1 whole entry, looked up): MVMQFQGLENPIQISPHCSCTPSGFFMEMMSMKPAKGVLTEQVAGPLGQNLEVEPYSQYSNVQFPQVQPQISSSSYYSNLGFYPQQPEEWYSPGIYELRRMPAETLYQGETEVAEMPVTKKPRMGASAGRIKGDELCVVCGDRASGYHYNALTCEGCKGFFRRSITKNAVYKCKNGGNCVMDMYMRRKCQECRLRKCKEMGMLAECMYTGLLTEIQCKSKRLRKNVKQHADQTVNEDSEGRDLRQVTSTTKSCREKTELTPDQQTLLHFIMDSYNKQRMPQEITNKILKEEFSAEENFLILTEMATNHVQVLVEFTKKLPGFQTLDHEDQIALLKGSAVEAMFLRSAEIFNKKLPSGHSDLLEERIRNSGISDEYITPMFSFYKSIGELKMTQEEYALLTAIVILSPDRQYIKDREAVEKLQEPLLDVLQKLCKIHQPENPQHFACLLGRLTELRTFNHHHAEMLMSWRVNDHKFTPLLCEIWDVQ
# Sequence of UniProt P06401 (P06401 whole entry, looked up): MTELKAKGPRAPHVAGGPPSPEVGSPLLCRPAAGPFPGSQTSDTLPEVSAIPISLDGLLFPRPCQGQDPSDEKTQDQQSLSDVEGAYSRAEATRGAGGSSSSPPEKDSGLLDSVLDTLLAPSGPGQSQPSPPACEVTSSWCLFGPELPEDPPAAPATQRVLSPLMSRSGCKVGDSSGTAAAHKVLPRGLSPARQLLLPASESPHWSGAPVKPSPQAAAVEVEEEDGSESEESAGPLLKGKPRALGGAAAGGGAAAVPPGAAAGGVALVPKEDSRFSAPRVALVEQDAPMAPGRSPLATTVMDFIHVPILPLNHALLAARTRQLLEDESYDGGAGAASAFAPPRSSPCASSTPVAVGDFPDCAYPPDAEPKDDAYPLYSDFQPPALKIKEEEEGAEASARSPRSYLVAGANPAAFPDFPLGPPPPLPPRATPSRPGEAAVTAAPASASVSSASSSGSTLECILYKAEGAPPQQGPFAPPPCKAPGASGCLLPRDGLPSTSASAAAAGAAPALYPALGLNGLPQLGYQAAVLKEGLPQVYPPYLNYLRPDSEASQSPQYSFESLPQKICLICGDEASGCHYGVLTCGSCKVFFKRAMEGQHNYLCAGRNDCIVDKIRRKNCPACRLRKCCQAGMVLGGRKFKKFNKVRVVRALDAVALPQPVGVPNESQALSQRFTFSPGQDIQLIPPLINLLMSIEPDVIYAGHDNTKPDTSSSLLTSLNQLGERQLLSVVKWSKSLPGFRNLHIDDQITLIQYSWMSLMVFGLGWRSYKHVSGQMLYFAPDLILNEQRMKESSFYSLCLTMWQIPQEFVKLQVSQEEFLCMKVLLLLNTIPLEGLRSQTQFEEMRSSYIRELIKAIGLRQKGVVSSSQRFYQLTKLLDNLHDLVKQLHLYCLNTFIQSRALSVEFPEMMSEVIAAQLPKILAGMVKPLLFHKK
# Sequence of UniProt P03372 (P03372 whole entry, looked up): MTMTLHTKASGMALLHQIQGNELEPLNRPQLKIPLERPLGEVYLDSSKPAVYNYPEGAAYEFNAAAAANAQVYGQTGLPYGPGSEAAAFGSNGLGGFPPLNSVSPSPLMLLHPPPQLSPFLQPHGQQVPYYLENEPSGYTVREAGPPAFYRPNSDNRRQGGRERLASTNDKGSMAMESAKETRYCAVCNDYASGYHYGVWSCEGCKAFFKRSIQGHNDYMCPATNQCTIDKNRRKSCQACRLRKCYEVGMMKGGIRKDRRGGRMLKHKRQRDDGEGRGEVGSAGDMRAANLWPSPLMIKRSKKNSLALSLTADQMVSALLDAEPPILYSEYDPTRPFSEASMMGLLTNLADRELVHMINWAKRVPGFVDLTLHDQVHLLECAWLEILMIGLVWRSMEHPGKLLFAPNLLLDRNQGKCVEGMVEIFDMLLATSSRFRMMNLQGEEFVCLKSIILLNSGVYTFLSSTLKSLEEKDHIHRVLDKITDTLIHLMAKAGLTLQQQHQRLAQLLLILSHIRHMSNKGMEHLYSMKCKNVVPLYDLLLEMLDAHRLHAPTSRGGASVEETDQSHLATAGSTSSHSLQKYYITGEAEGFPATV
compound,measurement,setting,value
CN(C)CCN(C)C,Potency,[1],active: 27.2 µM
Cc1nnc(-c2ccccc2)c(=O)n1N,Potency,[2],"inconclusive: 38.9 µM [activator, partial curve]"
same,Potency,[3],"inconclusive: 21.9 µM [rising, partial curve, poor fit]"
CC(C)(C)c1ccc(CCOc2ncnc3ccccc23)cc1,Potency,[3],inactive
same,Potency,[4],inactive
COS(=O)(=O)c1ccc(C)cc1,Potency,[5],inactive
c1ccc(Nc2ccc(Nc3ccccc3)cc2)cc1,Potency,[2],"inconclusive: 27.4 µM [falling, partial curve]"
same,"activity change, negative = inhibition",[6],inconclusive: -40.4%
same,Potency,[7],"inconclusive: 30.8 µM [falling, partial curve]"
same,Potency,[8],"inconclusive: 21.8 µM [activator, single point]"
same,Potency,[9],"inconclusive: 15.4 µM [falling, partial curve]"
same,Potency,[10],"inconclusive: 21.8 µM [activator, single point]"
CC1=C(C(=O)Nc2ccccc2)S(=O)(=O)CCO1,Potency,[11],"inconclusive: 68.5 µM [cytotoxic, single point]"
same,Potency,Aromatase (Homo sapiens),active: 48.5 µM
same,Potency,[6],"inconclusive: 54.9 µM [rising, single point]"
same,Potency,[3],inconclusive: 38.9 µM
same,Potency,[4],inactive
same,Potency,[9],"inconclusive: 61.6 µM [falling, partial curve, poor fit]"
same,Potency,[12],inactive
same,Potency,[1],inactive
O=P(Cl)(Cl)Cl,Potency,Aromatase (Homo sapiens),inactive
same,Potency,[7],inactive
CCN(CC)c1ccccc1,Potency,[13],inactive
same,Potency,[14],inactive
[O]=[Cd],Potency,[10],inactive
CCc1cc(C)cc(CC)c1-c1c(OC(=O)C(C)(C)C)n2n(c1=O)CCOCC2,Potency,[7],inactive
same,"activity, negative = inhibition",[15],inconclusive: 16.2%
COc1cccc2c1cc([N+](=O)[O-])c1c(C(=O)O)cc3c(c12)OCO3,Potency,[13],active: 61.1 µM
same,Potency,[6],"inconclusive: 11 µM [rising, partial curve]"
same,Potency,[3],"inconclusive: 30.9 µM [rising, partial curve]"
same,Potency,[16],"inconclusive: 24.3 µM [rising, partial curve]"
same,Potency,[5],"inconclusive: 49 µM [falling, partial curve]"
same,Potency,[4],"inconclusive: 30.9 µM [cytotoxic, partial curve, poor fit]"
same,Potency,[9],"inconclusive: 49 µM [falling, partial curve]"
same,Potency,[10],inactive
same,Potency,[12],"inconclusive: 54.9 µM [cytotoxic, single point]"
C1CC2OC2CC1C1CO1 (stereo unspecified),Potency,[9],"inconclusive: 21.9 µM [rising, single point]"
Nc1ccc(Oc2ccc(N)cc2)cc1,Potency,Aromatase (Homo sapiens),"inconclusive: 69.6 µM [inhibitor, single point] and active: 54.5 µM"
CCOC(=O)NC(O)C(Cl)(Cl)Cl (stereo unspecified),Potency,[14],inactive
COC(=O)COc1ccc(Cl)cc1Cl,Potency,[14],inactive
ClC(Cl)=C(c1ccc(Cl)cc1)c1ccccc1Cl,Potency,[16],inactive
same,Potency,[8],"inconclusive: 61.6 µM [activator, single point]"
same,Potency,[10],inactive
N#Cc1c(-c2ccc(Cl)cc2)[nH]c(C(F)(F)F)c1Br,Potency,[16],"inconclusive: 30.6 µM [cytotoxic, partial curve, poor fit]"
same,Potency,[5],"inconclusive: 54.9 µM [falling, partial curve]"
same,Potency,[7],"inconclusive: 0.174 µM [falling, full curve, poor fit]"
same,Potency,[4],"inconclusive: 17.4 µM [cytotoxic, partial curve]"
same,Potency,[12],"inconclusive: 54.9 µM [cytotoxic, single point]"
same,activation,[1],inconclusive: -8.18%
CSc1nc(N=[N+]=[N-])nc(NC(C)C)n1,Potency,[13],inactive
COC(=O)c1ccccc1CS(=O)(=O)NC(=O)Nc1nc(OC)cc(OC)n1,Potency,[1],"inconclusive: 0.0049 µM [falling, full curve, poor fit]"
Nc1cc(Cl)ccc1O,Potency,[2],inactive
same,Potency,[5],inactive
O=S(=O)(c1ccc(O)cc1)c1ccc(O)cc1,Potency,[2],active: 15.6 µM [inconclusive] and active: 24.5 µM [inconclusive]
same,Potency,[17],inactive
CN(C)CCc1ccc(O)cc1,Potency,[6],inactive
ClCCOCOCCCl,Potency,[18],inactive
Cc1c(F)c(F)c(COC(=O)C2C(/C=C(\Cl)C(F)(F)F)C2(C)C)c(F)c1F (stereo unspecified),Potency,[11],"inconclusive: 12.2 µM [rising, full curve]"
same,Potency,[6],"inconclusive: 19.5 µM [rising, full curve]"
same,Potency,[7],inactive
same,Potency,[17],inactive
